According to the supplement of paper PMC10126150:
Values marked as one replicate rest on one cluster of the flow cell; about a third of the high ones do not repeat.

Test system: ATP
Test: switch fluorescence ratio, 500 uM ATP over buffer (Cy3 cluster intensity, sum of 5 cycles each) (fold (ratio)); higher = stronger signal-on switching upon ATP binding; sequences stand for … in TCGTCGGCAGCGTCAGATGTGTATAAGAGACAGTTTTTTTTTTTTTTTTTTTTTTTTT…TC
Conditions: aptamer strand: ATP DNA aptamer (quencher-CACCTGGGGGAGTATTGCGGAGGAAGG + anchor), 100 nM annealed; ATP concentration: 500 uM; one replicate
Summary of the method: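 Exposure to 500 uM ATP lasted 15 min at 22 °C before imaging, and a selection-buffer image was taken beforehand, for Cy3-labelled switching-strand clusters on a modified Illumina MiSeq flow-cell annealed to 100 nM quencher-labelled ATP aptamer. Five buffer/ATP cycles were run with NaOH stripping and re-annealing between them. The fluorescence ratio per cluster is summed target-cycle over summed buffer-cycle Cy3 intensity, averaged per switch-domain sequence. Clusters outside 100-1000 RFU were excluded.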

Sequence	switch fluorescence ratio
GCACGTACAG	1.62
TAGCGTGAGA	1.04
GTTTGGGGAA	0.972
ATGCCCGTGT	0.999
TACTTTATTG	1.46
AAAGCCCGGA	1.04
CACATTGTAC	1.15
GTTGGTCCCC	0.996
ATAAAGCGGG	1
CTCGCACTGG	2.15
TCGGGCATGG	1.03
GGTAGTGCTA	0.989
ACTGGCGAAT	1.01
GAAGAATATC	0.975
TTTCTGGTAT	0.988
CAAGATATTA	1.02
GTGGCCGTAG	0.978
AAGATGGACC	1.02
CTACCATCCA	1.08
GCCTCGCAGA	1.14
ACACTCATGT	1.03
TGAACGTGC	1.02

Sequence	switch fluorescence ratio
TTCTGACGTG	0.996
TATTTCTTGC	0.977
AAGAATCCCG	1.03
TGGCCGGGTA	0.969
CGGGTGATTG	1.01
GTGTAGCGAT	1.66
ACTGCAGCCC	1.04
AGGCAAGGTG	1.18
TCAGACAGCT	0.963
TTGCTGAGTT	0.979
CCTGTCGGTG	1.06
TGTTGGGCGC	1.03
CATGTACCTG	1.07
ATTGGATCTA	0.943
GATGCAACGA	1.13
GATGTATAGG	1.03
CAACGCTATT	1.69
GTTAGGATGA	0.983
GACACAACGG	1.02
TAACAGGACG	0.967
AGGTTTGTAA	0.976
CCGGCAGCG	0.978

Sequence	switch fluorescence ratio
CCGTGTCCGG	0.998
ACACGCCGA	1.1
GCGGGCCATA	1.03
GATTATTCGC	1.04
AAAGGCGCAG	1.05
CCAGCTCGCG	0.965
CGGGATGAAA	0.956
GACGTCCGTG	1.01
TGGAAATCTT	1.01
GCCCTCAACT	0.987
AATGGAATAC	3.49
CGTTTCAAAT	1.03
CGAACCGAAT	0.976
AAGAAGGTCG	0.922
CCAGAATTCA	1
TCAAGGAAGA	1.02
AGTGGTACTT	1.01
GACGCGACAG	1.22
AGAATGTGTT	0.974
CCAGCTGGTT	1
AGGCCAGAGA	0.992
TCAAGTTTTA	1.02

Sequence	switch fluorescence ratio
CCCGGTTGTT	1.02
CGTAACTCCA	1.23
TCTGAGGCTG	1.05
CCACAAATGA	1.1
TCTAACAGCG	1.02
TGAGCAGGGT	1.05
CTACGGACTA	1.41
CCTCTACCTT	1.21
CTTTTTGGGC	0.982
TGCTGATGGA	0.965
TTTGCCTATC	0.99
GCGTTCCACA	1.1
TTCGGTACG	0.987
AGGTTTCAT	0.994
GACTGGGATG	0.995
GGAGGACACG	1.07
TACATGGGA	1.01
ACACCGCGCG	1.14
CATGTTCCAA	0.991
